In PubChem BioAssay AID504706 (National Center for Advancing Translational Sciences (NCATS), 2011):
Hit rate of the full screen: of about 320,000 compounds, about 200 (0.062%) were called active. This list was built around the results that the source calls inconclusive (neither active nor inactive); the mix of calls is not that of the screen. Calls come from the whole dose curve; as a rule, active = well fitted activation curve with a large enough effect; inconclusive = small, poorly fitted or top-dose-only effect; inactive = no such curve, though single readings can be large or run the other way. No potency is given beside an inconclusive call; the fits are too rough.

Assay: qHTS assay for re-activators of p53 using a Luc reporter; note: nearly all actives have a fitted effect of over 45% in size; for activity change, positive = activation: % of control where 0% means no effect
Conditions: H1299 p53-A138V BP100-luciferase reporter, luminescence, 24 h; series mostly up to 92.2 µM; activity change, positive = activation: at the top concentration
In short: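 p53-null H1299 cells stably carrying temperature-sensitive p53-A138V and a BP100-luciferase reporter were pinned with compounds (4-point, 1:5 series) and held 24 hrs at 37 deg C. Luminescence was read 10 min after detection reagent.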
Potency is the fitted concentration of half-maximal effect; tags give direction and shape of the fitted curve.

SMILES | activity change, positive = activation | Potency
CCOC(=O)C1CCCN(CC(=O)Nc2c(C(=O)OC)[nH]c3ccc(C)cc23)C1 (stereo unspecified) | inactive: -13.4% | –
Cc1ccc(N/N=C(\C#N)C(=N)N2CCOCC2)cc1 | – | inconclusive [activator, partial curve, poor fit]
CCN1/C(=C/c2ccc3cc(C)ccc3[n+]2CC)Sc2cc(C)c(C)cc21 | inactive: -4.26% | –
Cc1cccc(NC(=O)c2ccc3c(Cl)c4c(nc3c2)CCCC4)n1 | – | inconclusive [activator, partial curve, poor fit]
COc1ccc(NC(=O)c2cc(-c3ccccc3OC)on2)cc1 | – | inconclusive [activator, partial curve, poor fit]
CCn1cc(CN2CCC(C(=O)Nc3cccc(-c4cccc(OC)c4)c3)CC2)cn1 | – | inconclusive [activator, single point]
Cc1c(/C=N\NC(=O)C2COc3ccc(C(C)(C)C)cc3O2)c2ccccc2n1C (stereo unspecified) | – | inconclusive [activator, full curve, poor fit]
COc1cc(C2Nc3ccccc3C(=O)N2c2ccc(Cl)cc2)c(Cl)cc1OCC(=O)O (stereo unspecified) | – | inconclusive [activator, partial curve, poor fit]
Cc1ccn2cc(-c3cc4ccccc4oc3=O)nc2c1 | inactive: 4.28% | –
Cc1cc(Sc2nnc(N)s2)c2ccccc2n1 | inactive: -13.7% | –
COC(=O)CNC(=O)C1CCN(C(=O)OCc2ccccc2)CC1 | – | inconclusive [activator, single point]
CCn1nccc1C(=O)Nc1ccc(Cl)cc1Cl | inactive: 7.04% | –
O=C1OC(/C(=C\Nc2cc(Cl)ccc2O)[N+](=O)[O-])c2ccccc21 (stereo unspecified) | inactive: -11% | –
C=CCN(CC=C)S(=O)(=O)c1ccc(NC(=S)NC(=O)c2ccc(-c3ccccc3)cc2)cc1 | inactive: -0.438% | –
Cc1cc(-c2onc3ccc(Cl)cc23)ccc1O | – | inconclusive [activator, partial curve, poor fit]
O=c1nccc(N/N=C/c2ccccc2)[nH]1 | – | inconclusive [activator, partial curve, poor fit]
O=C(/C=C/Nc1ccc(F)cc1Br)c1ccccc1 | inactive: 16% | –
CN(C)c1ccc(N=Nc2ccccc2C(=O)OCC(=O)NCC2CCCCC2)cc1 | – | inconclusive [activator, partial curve, poor fit]
Cc1sc2nc(CN3CCCC3)nc(N3CCN(S(=O)(=O)c4ccccc4)CC3)c2c1C | – | inconclusive [activator, single point]
O=C(NNC(=S)NC(=O)c1ccccc1[N+](=O)[O-])c1ccccc1 | inactive: 2.92% | –
O=C(Nc1ccc(N2CCOCC2)cc1)c1cnccn1 | inactive: -6.51% | –
N#Cc1ccc(NC(=O)C2=COCCO2)cc1 | – | inconclusive [activator, full curve, poor fit]
Cc1ccc(NC(=O)CCNC(=O)c2ccco2)cc1 | – | inconclusive [activator, single point]
CN(C(=O)COC(=O)C(Cc1ccccc1)NC(=O)c1ccccc1)c1ccccc1 (stereo unspecified) | – | inconclusive [activator, full curve, poor fit]

SMILES | activity change, positive = activation | Potency
CC(NCC(=O)NCC(=O)Nc1ccc(F)cc1)c1cccc(C(F)(F)F)c1 (stereo unspecified) | inactive: -5.13% | –
N#CCCSCc1ccc(C(=O)O)o1 | – | inconclusive [activator, partial curve, poor fit]
COc1ccc(OCc2cnc(Cl)s2)cc1 | – | inconclusive [activator, partial curve, poor fit]
O=C(/C=C/c1ccccc1)NCCSCc1ccccc1 | – | inconclusive [activator, partial curve, poor fit]
Cc1ccc(C(=O)Nc2ncccc2O)o1 | – | inconclusive [activator, full curve, poor fit]
Cc1csc(NC(=O)CSc2nnc(-c3cccs3)n2C)n1 | – | inconclusive [activator, partial curve, poor fit]
CCc1ccc(OCC(=O)NC(=S)Nc2cccc(CO)c2)c(Br)c1 | – | inconclusive [activator, partial curve, poor fit]
CCOCCCNC(=O)c1ccc(OC)cc1 | – | inconclusive [activator, partial curve, poor fit]
O=C(Nc1ccsc1C(=O)O)c1ccc(Cl)cc1 | – | inconclusive [activator, partial curve, poor fit]
CCCCn1c(=O)[nH]c2nc3cc(N)ccc3nc2c1=O | – | inconclusive [activator, full curve, poor fit]
Cc1nc(NC(=O)CCc2ccccc2)ccc1Br | – | inconclusive [activator, partial curve, poor fit]
Cc1nc(N)sc1-c1csc(Nc2ncccn2)n1 | – | inconclusive [activator, partial curve, poor fit]
Cc1ccc(NC(=O)Cn2nc(C)c([N+](=O)[O-])c2C)cc1C | inactive: 5.16% | –
CC(C)=CCCC(C)NC(=O)NC1CCCCC1 (stereo unspecified) | – | inconclusive [activator, partial curve, poor fit]
CN(C(=O)CSc1nncc2ccccc12)c1ccccc1 | – | inconclusive [activator, partial curve, poor fit]
Cc1cc(C)nc(NC2=NCCN2C(=O)NC2CCCCC2)n1 | inactive: 6.3% | –
CCCCOc1ccc(C(=O)NCc2ccccn2)cc1 | – | inconclusive [activator, single point]
CC1CCN(C(=S)Nc2ccc(SC(F)F)cc2)CC1 | – | inconclusive [activator, partial curve, poor fit]
Cc1ccc(/C=N/Nc2ccc(Cl)c(C(=O)O)c2)s1 | – | inconclusive [activator, partial curve, poor fit]
O=c1nc2sc3ccccc3n2c(=O)n1-c1cccc(Cl)c1 | – | inconclusive [activator, partial curve, poor fit]
COc1ccccc1C(=O)NCCC(=O)Nc1cccnc1 | inactive: 1.99% | –
O=C(Nc1ccccc1)N1CCCC(CNS(=O)(=O)Cc2ccccc2)C1 (stereo unspecified) | inactive: 4.31% | –
O=[N+]([O-])c1ccc(N=Cc2sc3ccccc3c2O)cc1 | – | inconclusive [activator, partial curve, poor fit]
CCCC(=O)N(CCc1ccc(OC)cc1)Cc1nc2ccccc2c(=O)[nH]1 | inactive: 0.286% | –

SMILES | activity change, positive = activation | Potency
Cc1ccccc1-c1nc(-c2ccc(NC(=O)c3ccc(Br)o3)cc2)no1 | – | inconclusive [activator, full curve]
O=C(NCc1cccs1)c1ccc2c(c1)OCCO2 | – | inconclusive [activator, partial curve, poor fit]
c1ccc(-c2nc3ccccc3[nH]2)nc1 | – | inconclusive [activator, partial curve, poor fit]
Cc1nc(SCC(=O)Nc2nnc(C(C)C)s2)n[nH]1 | inactive: 2.99% | –
CCOC(=O)c1c(C)[nH]c(C=Nc2ccc(OC)cc2)c1O | – | inconclusive [activator, full curve, poor fit]
O=C(OCC(=O)N1CCCCC1)c1cc(=O)[nH]c2ccccc12 | – | inconclusive [activator, full curve, poor fit]
O=C(Nc1ccc(Br)c(Cl)c1)c1ccco1 | – | inconclusive [activator, partial curve, poor fit]
CC1(C)C(=O)Nc2ccccc2N1C(=O)COC(=O)c1ccc([N+](=O)[O-])o1 | – | inconclusive [activator, partial curve, poor fit]
O=C1SC(SC(=Nc2ccccc2)Nc2ccccc2)C(=O)N1c1ccccc1 (stereo unspecified) | – | inconclusive [activator, partial curve, poor fit]
O=C(NC(=S)NCCc1ccccc1)c1cccc(Cl)c1 | – | inconclusive [activator, single point]
CN(Cc1nccn1C)C(=O)c1cc(COc2cccc(C(F)(F)F)c2)on1 | inactive: 8.54% | –
Cc1csc(SCC(=O)Nc2cccc(C)c2C)n1 | inactive: 3.21% | –
CSc1ccccc1NC(=O)c1cnc2sc(C)cn2c1=O | – | inconclusive [activator, partial curve, poor fit]
Cc1cc(NC(=O)C(C)Oc2ccc(Cl)cc2Cl)no1 (stereo unspecified) | inactive: 15.3% | –
Cc1ccc(O)c(NC(=S)NC(=O)/C=C/c2ccco2)c1 | inactive: 0.718% | –
O=C(CSc1ccc(-c2ccccn2)nn1)Nc1ccc(F)c(F)c1 | – | inconclusive [activator, single point]
Cc1cc2nc(/C=C/c3cccnc3)[nH]c2cc1C | – | inconclusive [activator, full curve, poor fit]
CCCC(=O)c1ccc(N2CCN(C(=O)OCC)CC2)c(F)c1 | – | inconclusive [activator, single point]
Cc1cccc(N2CCN(C(=O)C3CCN(S(=O)(=O)c4cccc5cccnc45)CC3)CC2C)c1 (stereo unspecified) | inactive: -1.69% | –
CC(C)CC(=O)Nc1cccc(-c2csc(-c3ccccc3)n2)c1 | – | inconclusive [activator, single point]
Clc1ccc(-c2csc(N3CCOCC3)n2)cc1 | inactive: 19.5% | –
CCOC(=O)C1=C(O)/C(=C/c2cn(CC(=O)N3CCCC3)c3ccccc23)SC1=Nc1ccccc1 | inactive: -1.72% | –
COc1cc(OC)c(C(=O)OCC(=O)NC23CC4CC(CC(C4)C2)C3)cc1OC | inactive: 0.0229% | –
